The campaign covered roughly 48,000 compounds. About 1,200 (2.5%) were called active. Inconclusive results, whose numbers are uncertain, are shown with a selection of clear calls.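 How the source made its calls: active means activation of at least 60% and not above a set upper limit (about 1 call in 100 departs from these limits); inconclusive means activation of 40% to 60%, or above that upper limit; inactive means activation under 40%.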
What follows are compounds tested against Probable G-protein coupled receptor 32 (Homo sapiens) (UniProt O75388) (assay: qHTS for Agonists of Human Resolvin D1 Receptor DRV1). Conditions: CHO-K1 GPR32 beta-arrestin PathHunter luminescence, 90 min; at 76.9 µM; active compounds read high; zero percent set by DMSO-only wells.
UniProt O75388, sequence (O75388 whole entry, looked up, the tested form may be a part): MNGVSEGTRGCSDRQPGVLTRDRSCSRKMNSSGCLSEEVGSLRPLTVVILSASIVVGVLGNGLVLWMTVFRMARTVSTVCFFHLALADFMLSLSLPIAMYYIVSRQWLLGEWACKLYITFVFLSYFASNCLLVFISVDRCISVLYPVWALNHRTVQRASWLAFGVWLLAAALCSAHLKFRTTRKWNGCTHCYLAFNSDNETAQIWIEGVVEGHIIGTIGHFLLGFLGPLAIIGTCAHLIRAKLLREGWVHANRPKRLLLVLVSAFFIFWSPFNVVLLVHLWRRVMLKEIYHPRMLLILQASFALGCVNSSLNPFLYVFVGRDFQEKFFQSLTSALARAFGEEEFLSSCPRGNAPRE
Method in brief: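 PathHunter enzyme-fragment complementation, CHO-K1 GPR32 stable line; 2,500 cells/well, overnight attach; cpd 90 min 37 °C 5% CO2; detection reagent 1 h RT; chemiluminescence. DMSO = EC0.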
Further: 0% is about no effect.

Row | SMILES | activation
1 | CCCCCSc1nnc2c(n1)[nH]c1c(C)cccc12 | inconclusive: 55%
2 | COc1cc(C2Nc3ccccc3-c3nnc(SCc4ccc(C)cc4)nc3O2)cc(OC)c1O (centres undefined) | inconclusive: 168%
3 | CCc1ccc(CNC(=O)c2cnc3c(C)cccn3c2=O)cc1 | inconclusive: 171%
4 | NC(=O)CSc1nc2ccc(NC(=O)COc3ccccc3Cl)cc2s1 | active: 90.3%
5 | COc1cc(NC(=O)Cn2nc(C(F)(F)F)c3c2CCCC3)c(OC)cc1Cl | inconclusive: 51.5%
6 | COc1ccc(-c2cn3nc(N4CCC(C(=O)Nc5cccc(Cl)c5)CC4)sc3n2)cc1 | active: 77.6%
7 | CCN(CC)S(=O)(=O)c1ccc2c(c1)c(=O)c(C(=O)NCc1ccccc1)cn2C | inconclusive: 122%
8 | Cc1ccc(C(C)C)c(OCC(=O)Nc2ccc(S(=O)(=O)Nc3onc(C)c3C)cc2)c1 | inconclusive: 225%
9 | CC1=C(C(=O)Nc2cccnc2)C(c2ccc(Cl)cc2)n2nc(-c3ccccc3)nc2N1 (centres undefined) | inconclusive: 130%
10 | COc1ccc(NC(=O)CN2CCCN(Cc3ccc(Cl)cc3)S2(=O)=O)cc1Cl | inconclusive: 56.9%
11 | COc1cccc(CC(=O)Nc2ccc(-c3nc4ccccc4s3)cc2)c1 | inconclusive: 52.9%
12 | C[C@@H](CN1CC(=O)NC(=O)C1)N1CC(=O)NC(=O)C1 | inactive: -71.1%
13 | COc1ccc(CNC(=O)c2ccc3nc(CCc4ccccc4)oc3c2)cc1OC | inconclusive: 123%
14 | CCOc1cccc(C(=O)N2CCC(c3nc4ccccc4s3)CC2)c1 | inconclusive: 143%
15 | CCOC(=O)c1[nH]c2ccccc2c1NC(=O)c1ccc(Br)cc1 | inconclusive: 55.2%
16 | CCN(Cc1ccccc1)S(=O)(=O)c1ccc(-c2coc(C)n2)cc1 | inconclusive: 59.4%
17 | CCC(=O)C1=C(c2ccc(F)cc2)N(C(=O)CC)n2cnnc2S1 | inactive: -55.6%
18 | CCn1c(=O)cc(SCC(=O)NCc2cccc(Cl)c2)c2ccccc21 | inconclusive: 51.2%
19 | O=C(NCCc1csc(-c2cccnc2)n1)c1cccc(Cl)c1 | inconclusive: 122%
20 | Cc1ccc(-n2ncc3c(NCc4ccccc4)ncnc32)cc1Cl | active: 61.7%
21 | c1coc(-c2nc3n(n2)C2(CCCCC2)[C@@H]2CCCC[C@@H]2N3)c1 | inconclusive: 57.2%
22 | COc1cc(NC(=O)Nc2cccc(-c3noc(C)n3)c2)cc(OC)c1OC | inconclusive: 50.5%
23 | COc1ccc(N(Cc2cccs2)C(=O)c2ccc(OCC(C)C)cc2)cc1 | inactive: -30%
24 | COc1cc(OC)cc(-c2cc3nc(C)c(CCC(=O)NCc4ccc(Cl)cc4)c(C)n3n2)c1 | inactive: -2.2%
